B1: his-tagged mammalian expressed control human IL-2, compound 13 (ligand)
chain: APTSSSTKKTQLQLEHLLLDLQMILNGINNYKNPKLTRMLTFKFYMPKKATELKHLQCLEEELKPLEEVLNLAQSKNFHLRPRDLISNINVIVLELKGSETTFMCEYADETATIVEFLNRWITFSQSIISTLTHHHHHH
B2: unbiased control recombinant human IL-2, compound 12 (ligand)
chain: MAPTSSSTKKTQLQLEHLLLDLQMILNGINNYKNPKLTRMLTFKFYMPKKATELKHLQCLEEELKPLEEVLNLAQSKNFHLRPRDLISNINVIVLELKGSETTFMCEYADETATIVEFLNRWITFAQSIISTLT

What was measured:
[1] = biological target: T1, cynomolgus monkey IL-2Rβ/γ (cynomolgus monkey); assay: cell-based or functional assay
T1 chain 1: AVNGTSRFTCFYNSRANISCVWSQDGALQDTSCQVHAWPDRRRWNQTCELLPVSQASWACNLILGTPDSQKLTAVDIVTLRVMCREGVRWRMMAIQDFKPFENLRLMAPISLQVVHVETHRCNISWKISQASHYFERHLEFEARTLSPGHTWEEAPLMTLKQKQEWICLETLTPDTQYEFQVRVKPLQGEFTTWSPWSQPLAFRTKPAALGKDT
T1 chain 2: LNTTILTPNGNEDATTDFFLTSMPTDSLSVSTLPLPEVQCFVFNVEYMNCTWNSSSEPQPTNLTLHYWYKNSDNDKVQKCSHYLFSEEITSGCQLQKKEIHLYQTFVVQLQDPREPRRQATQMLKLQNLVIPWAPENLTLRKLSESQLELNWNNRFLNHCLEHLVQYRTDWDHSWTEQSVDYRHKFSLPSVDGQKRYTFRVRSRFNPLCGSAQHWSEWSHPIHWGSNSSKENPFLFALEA

[2] = biological target: T1, cynomolgus monkey IL-2Rβ/γ; assay: cell-based or functional assay
human IL-2Rβ-Fc = biological target: T2, human IL-2Rβ-Fc (human, UniProt P14784 27-239, limits assumed); assay: SPR (Biacore), analyte injected onto human IL-2Rβ-Fc coated sensor chip
T2 construct: Coated on the Biacore sensor chip; also called CD122; not shown: Fc part
T2 sequence (looked up): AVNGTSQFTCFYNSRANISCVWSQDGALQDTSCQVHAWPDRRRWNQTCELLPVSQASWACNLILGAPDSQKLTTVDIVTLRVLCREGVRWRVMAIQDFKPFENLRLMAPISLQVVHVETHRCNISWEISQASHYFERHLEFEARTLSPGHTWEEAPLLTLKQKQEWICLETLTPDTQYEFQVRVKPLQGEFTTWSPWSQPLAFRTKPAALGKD

human IL-2Rα-Fc = biological target: T3, human IL-2Rα-Fc (human, UniProt P01589 22-213, limits assumed); assay: SPR (Biacore), analyte injected onto human IL-2Rα-Fc coated sensor chip
T3 construct: Coated on the Biacore sensor chip; also called CD25; not shown: Fc part
T3 sequence (looked up): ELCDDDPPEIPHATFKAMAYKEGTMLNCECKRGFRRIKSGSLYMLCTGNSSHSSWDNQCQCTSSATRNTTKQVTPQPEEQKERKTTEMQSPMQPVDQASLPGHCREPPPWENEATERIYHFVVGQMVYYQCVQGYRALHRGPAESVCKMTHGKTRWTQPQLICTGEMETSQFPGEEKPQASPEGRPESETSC

human IL-2Rβ/γ = biological target: T4, human IL-2Rβ/γ (human, UniProt P14784 27-551; P31785 23-369); assay: cell-based or functional assay
T4 sequence (looked up) 1: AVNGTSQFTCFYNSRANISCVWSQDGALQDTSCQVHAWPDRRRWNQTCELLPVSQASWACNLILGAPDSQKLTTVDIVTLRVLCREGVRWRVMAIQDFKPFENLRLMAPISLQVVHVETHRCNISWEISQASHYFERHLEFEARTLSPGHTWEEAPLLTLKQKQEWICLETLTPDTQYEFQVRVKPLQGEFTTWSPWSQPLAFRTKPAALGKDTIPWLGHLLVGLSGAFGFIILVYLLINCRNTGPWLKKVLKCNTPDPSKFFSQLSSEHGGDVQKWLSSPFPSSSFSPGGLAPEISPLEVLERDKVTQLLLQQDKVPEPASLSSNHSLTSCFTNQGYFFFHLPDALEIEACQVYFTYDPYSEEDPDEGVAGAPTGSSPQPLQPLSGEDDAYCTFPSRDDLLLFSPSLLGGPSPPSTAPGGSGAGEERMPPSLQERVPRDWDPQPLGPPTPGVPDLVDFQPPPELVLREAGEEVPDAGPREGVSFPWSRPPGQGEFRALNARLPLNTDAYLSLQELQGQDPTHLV
T4 sequence (looked up) 2: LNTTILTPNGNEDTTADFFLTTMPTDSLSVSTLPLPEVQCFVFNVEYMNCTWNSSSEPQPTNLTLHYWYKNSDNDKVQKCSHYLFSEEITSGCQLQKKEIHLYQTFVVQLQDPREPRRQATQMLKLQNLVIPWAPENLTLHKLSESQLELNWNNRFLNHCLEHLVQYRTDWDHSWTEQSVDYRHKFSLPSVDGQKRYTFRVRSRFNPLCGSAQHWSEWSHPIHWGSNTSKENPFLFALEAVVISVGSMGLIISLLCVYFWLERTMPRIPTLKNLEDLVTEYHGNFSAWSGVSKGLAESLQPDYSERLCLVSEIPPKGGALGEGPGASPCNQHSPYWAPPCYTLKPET

Binder | pSTAT5 EC50, CD8, cynomolgus monkey whole blood [1] [ng/mL] | pSTAT5 EC50, NK, cynomolgus monkey whole blood [1] [ng/mL] | Fold Potency Loss vs Human (pSTAT5), CD8, cynomolgus monkey [2] [fold] | Fold Potency Loss vs Human (pSTAT5), NK, cynomolgus monkey [2] [fold] | Kd (human IL-2Rβ-Fc) [nM] | Kd (human IL-2Rα-Fc) [nM] | pSTAT5 EC50, HH cells (human IL-2Rβ/γ) [ng/ml]
B1 | 45.1 | 10.5 | 1.76 | 1.75 | – | – | –
B2 | – | – | – | – | 450 | 9.57 | 233

Reference: patent publication US20260109747A1 (ASCENDIS PHARMA ONCOLOGY DIVISION A S, published 2026)
